# Laboratory results reported in the supplement of paper PMC6089552.
# About 300 (9.4%) of roughly 3,200 compounds showed activity. This is a selection; strong and weak results do not stand in their true shares.
# Test system: A673/TR/shEF
# Assay: cell viability (LOESS-normalised, relative to median of negative controls) (log2 ratio); higher = more viable cells (less compound effect), active = hit call of the paper (over 3 MAD below the median)
# Settings: treatment time: 72 h
# Method in brief: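 A673/TR/shEF Ewing sarcoma cells (1,500 per well, 384-well plates) were grown with or without doxycycline to induce EWS-FLI1 shRNA knockdown, starting 24 h before compounds. Library compounds at two or more concentrations, with DMSO controls, were added for three days. Cell viability was read by CellTiter-Glo luminescence on an Envision reader, then LOESS-corrected per plate, divided by the median of negative controls and log2-transformed. Hits were wells at least three median absolute deviations from the median of all screened wells.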
# [1] = 0.25 µM, library screen: screen2, EWS-FLI1 expression: high (no doxycycline)
# [2] = 0.25 µM, library screen: screen2, EWS-FLI1 expression: low (doxycycline-induced shRNA knockdown)
# [3] = 2.5 µM, library screen: screen2, EWS-FLI1 expression: high (no doxycycline)
# [4] = 2.5 µM, library screen: screen2, EWS-FLI1 expression: low (doxycycline-induced shRNA knockdown)
# [5] = 0.25 µM, library screen: screen1, EWS-FLI1 expression: high (no doxycycline)
# [6] = 0.25 µM, library screen: screen1, EWS-FLI1 expression: low (doxycycline-induced shRNA knockdown)
# [7] = 2.5 µM, library screen: screen1, EWS-FLI1 expression: high (no doxycycline)
# [8] = 2.5 µM, library screen: screen1, EWS-FLI1 expression: low (doxycycline-induced shRNA knockdown)
# [9] = 0.103 µM, library screen: screen3, EWS-FLI1 expression: high (no doxycycline)
# [10] = 0.103 µM, library screen: screen3, EWS-FLI1 expression: low (doxycycline-induced shRNA knockdown)
# [11] = 0.308 µM, library screen: screen3, EWS-FLI1 expression: high (no doxycycline)
# [12] = 0.308 µM, library screen: screen3, EWS-FLI1 expression: low (doxycycline-induced shRNA knockdown)
# [13] = 0.926 µM, library screen: screen3, EWS-FLI1 expression: high (no doxycycline)
# [14] = 0.926 µM, library screen: screen3, EWS-FLI1 expression: low (doxycycline-induced shRNA knockdown)
# [15] = 2.8 µM, library screen: screen3, EWS-FLI1 expression: high (no doxycycline)
# [16] = 2.8 µM, library screen: screen3, EWS-FLI1 expression: low (doxycycline-induced shRNA knockdown)
# [17] = 8.3 µM, library screen: screen3, EWS-FLI1 expression: high (no doxycycline)
# [18] = 8.3 µM, library screen: screen3, EWS-FLI1 expression: low (doxycycline-induced shRNA knockdown)
# [19] = 25 µM, library screen: screen3, EWS-FLI1 expression: high (no doxycycline)
# [20] = 25 µM, library screen: screen3, EWS-FLI1 expression: low (doxycycline-induced shRNA knockdown)
smiles,measurement,setting,value
NC/C=C\C(=O)O,cell viability (log2),[1],inactive: 0.181
same,cell viability (log2),[2],inactive: 0.112
same,cell viability (log2),[3],inactive: 0.0617
same,cell viability (log2),[4],inactive: 0.109
C=C[C@@](C)(O)CCC1C(=C)CCC2[C@@](C)(CO)CCC[C@]12C (some centres undefined),cell viability (log2),[5],inactive: 0.118
same,cell viability (log2),[6],inactive: -0.0475
same,cell viability (log2),[7],inactive: 0.151
same,cell viability (log2),[8],inactive: -0.0116
CC12CCC(CC1=O)C2(C)C (centres undefined),cell viability (log2),[5],inactive: 0.0703
same,cell viability (log2),[6],inactive: 0.0317
same,cell viability (log2),[7],inactive: 0.141
same,cell viability (log2),[8],inactive: 0.0883
NC(N)=NC(=O)Cc1c(Cl)cccc1Cl,cell viability (log2),[1],inactive: 0.0785
same,cell viability (log2),[2],inactive: 0.0403
same,cell viability (log2),[3],inactive: 0.0739
same,cell viability (log2),[4],inactive: 0.0584
C[C@](N)(Cc1ccc(O)c(O)c1)C(=O)O,cell viability (log2),[5],inactive: 0.132
same,cell viability (log2),[6],inactive: 0.0321
same,cell viability (log2),[1],inactive: 0.097
same,cell viability (log2),[2],inactive: 0.0348
same,cell viability (log2),[7],inactive: 0.129
same,cell viability (log2),[8],inactive: 0.168
same,cell viability (log2),[3],inactive: 0.129
same,cell viability (log2),[4],inactive: 0.0838
c1cnc(N2CCN(Cc3ccc4c(c3)OCO4)CC2)nc1,cell viability (log2),[1],inactive: 0.227
same,cell viability (log2),[2],inactive: 0.158
same,cell viability (log2),[3],inactive: 0.183
same,cell viability (log2),[4],inactive: 0.107
C#CCCCCCCCCCCCC(O)CC(O)COC(C)=O.C=CCCCCCCCCCCCC(O)CC(O)COC(C)=O (centres undefined),cell viability (log2),[5],inactive: 0.0598
same,cell viability (log2),[6],inactive: 0.0749
same,cell viability (log2),[7],inactive: 0.108
same,cell viability (log2),[8],inactive: 0.0101
C=CC(C1=CC(=O)C(OC)=CC1=O)c1ccccc1 (centres undefined),cell viability (log2),[5],inactive: 0.0774
same,cell viability (log2),[6],inactive: 0.000535
same,cell viability (log2),[7],inactive: 0.158
same,cell viability (log2),[8],inactive: 0.101
COC(=O)c1cc(=O)c(O)c2c(O)c(O)ccc2c1,cell viability (log2),[5],inactive: 0.103
same,cell viability (log2),[6],inactive: 0.0315
same,cell viability (log2),[7],inactive: 0.145
same,cell viability (log2),[8],inactive: 0.0325
CCCCCCCCCC(=O)NC(CN1CCOCC1)C(O)c1ccccc1 (centres undefined),cell viability (log2),[1],active: -0.53
same,cell viability (log2),[2],active: -0.533
same,cell viability (log2),[3],active: -1.39
same,cell viability (log2),[4],active: -2.57
C/C(=C\CO)CCC[C@H](C)CCC[C@H](C)CCCC(C)C,cell viability (log2),[5],inactive: 0.0657
same,cell viability (log2),[6],inactive: 0.0273
same,cell viability (log2),[7],inactive: 0.135
same,cell viability (log2),[8],inactive: -0.104
Cc1c(O)c(C(=O)CC(C)C)c2oc3c(C(=O)CC(C)C)c(O)c(C)c(O)c3c2c1O,cell viability (log2),[5],inactive: 0.0407
same,cell viability (log2),[6],inactive: 0.0843
same,cell viability (log2),[7],inactive: 0.0935
same,cell viability (log2),[8],inactive: 0.0892
CC(C)C(=O)Oc1ccc(CO)cc1[C@H](CCN(C(C)C)C(C)C)c1ccccc1,cell viability (log2),[9],inactive: 0.0458
same,cell viability (log2),[10],inactive: 0.0263
same,cell viability (log2),[11],inactive: 0.0469
same,cell viability (log2),[12],inactive: 0.0512
same,cell viability (log2),[13],inactive: 0.0969
same,cell viability (log2),[14],inactive: 0.0713
same,cell viability (log2),[15],inactive: 0.0716
same,cell viability (log2),[16],inactive: 0.0429
same,cell viability (log2),[17],inactive: 0.0271
same,cell viability (log2),[18],inactive: 0.0627
same,cell viability (log2),[19],inactive: 0.0496
same,cell viability (log2),[20],inactive: 0.113
Cc1ccc(NC(=O)c2ccc(CN3CCN(C)CC3)cc2)cc1Nc1nccc(-c2cccnc2)n1,cell viability (log2),[19],active: -0.195
COc1cc2c(Nc3ccc(Br)cc3F)ncnc2cc1OCC1CCN(C)CC1,cell viability (log2),[9],inactive: -0.0043
same,cell viability (log2),[10],inactive: 0.0398
same,cell viability (log2),[11],inactive: -0.0447
same,cell viability (log2),[12],inactive: 0.068
same,cell viability (log2),[13],inactive: 0.0443
same,cell viability (log2),[14],inactive: 0.0503
same,cell viability (log2),[15],inactive: -0.0379
same,cell viability (log2),[16],inactive: 0.00456
same,cell viability (log2),[17],inactive: -0.00527
same,cell viability (log2),[18],inactive: -0.0123
same,cell viability (log2),[19],inactive: -0.0986
same,cell viability (log2),[20],inactive: -0.0825
CC(=O)O[C@H]1CC[C@@]2(C)C(C[C@@H](OC(C)=O)[C@]3(C)C2CC[C@@]2(C)[C@H](c4ccoc4)OC(=O)[C@H]4O[C@]423)C1(C)C (some centres undefined),cell viability (log2),[5],inactive: 0.0263
same,cell viability (log2),[6],inactive: 0.146
same,cell viability (log2),[7],inactive: 0.141
same,cell viability (log2),[8],inactive: 0.119
CCOC(=O)O[C@]1(C(=O)OCCl)CC[C@H]2[C@@H]3CCC4=CC(=O)C=C[C@]4(C)[C@H]3[C@@H](O)C[C@@]21C,cell viability (log2),[9],inactive: 0.0687
same,cell viability (log2),[10],inactive: 0.0505
same,cell viability (log2),[11],inactive: 0.0534
same,cell viability (log2),[12],inactive: 0.0845
same,cell viability (log2),[13],inactive: 0.0173
same,cell viability (log2),[14],inactive: 0.0991
same,cell viability (log2),[15],inactive: 0.0681
same,cell viability (log2),[16],inactive: 0.0622
same,cell viability (log2),[17],inactive: -0.00165
same,cell viability (log2),[18],inactive: 0.0868
same,cell viability (log2),[19],inactive: -0.04
same,cell viability (log2),[20],inactive: 0.0542
O=C(O)c1nc2cc(Cl)c(Cl)cc2[nH]c1=O,cell viability (log2),[5],inactive: 0.0263
same,cell viability (log2),[6],inactive: 0.026
same,cell viability (log2),[7],inactive: 0.0518
same,cell viability (log2),[8],inactive: 0.0707
Cn1c(=O)[nH]c2ncn(C)c2c1=O,cell viability (log2),[5],inactive: 0.132
same,cell viability (log2),[6],inactive: 0.0699
same,cell viability (log2),[1],inactive: 0.202
same,cell viability (log2),[2],inactive: 0.0661
same,cell viability (log2),[7],inactive: 0.148
same,cell viability (log2),[8],inactive: 0.0595
same,cell viability (log2),[3],inactive: 0.102
same,cell viability (log2),[4],inactive: 0.106
NC(C(=O)O)C1CC(Cl)=NO1 (centres undefined),cell viability (log2),[5],inactive: 0.0957
same,cell viability (log2),[6],inactive: -0.0918
same,cell viability (log2),[7],inactive: 0.151
same,cell viability (log2),[8],inactive: 0.103
C1COC(NC(C2CC2)C2CC2)=N1,cell viability (log2),[1],inactive: 0.233
same,cell viability (log2),[2],inactive: 0.156
same,cell viability (log2),[3],inactive: 0.202
same,cell viability (log2),[4],inactive: 0.117
Cc1cc(C(C)(C)C)c(O)c(C(C)(C)C)c1,cell viability (log2),[5],inactive: 0.159
same,cell viability (log2),[6],inactive: 0.0822
same,cell viability (log2),[7],inactive: 0.153
same,cell viability (log2),[8],inactive: 0.182
CN/C(=C\[N+](=O)[O-])NCCSCc1ccc(CN(C)C)o1,cell viability (log2),[9],inactive: 0.0502
same,cell viability (log2),[10],inactive: 0.0103
same,cell viability (log2),[5],inactive: 0.088
same,cell viability (log2),[6],inactive: 0.0512
same,cell viability (log2),[1],inactive: 0.152
same,cell viability (log2),[2],inactive: 0.0357
same,cell viability (log2),[11],inactive: 0.129
same,cell viability (log2),[12],inactive: 0.0395
same,cell viability (log2),[13],inactive: 0.0665
same,cell viability (log2),[14],inactive: 0.0631
same,cell viability (log2),[7],inactive: 0.0941
same,cell viability (log2),[8],inactive: 0.00845
same,cell viability (log2),[3],inactive: 0.147
same,cell viability (log2),[4],inactive: 0.0931
same,cell viability (log2),[15],inactive: 0.0761
same,cell viability (log2),[16],inactive: 0.132
same,cell viability (log2),[17],inactive: 0.0612
same,cell viability (log2),[18],inactive: 0.0932
same,cell viability (log2),[19],inactive: 0.104
same,cell viability (log2),[20],inactive: 0.0542
O=C(O)c1cn(C2CC2)c2cc(N3CCNCC3)c(F)cc2c1=O,cell viability (log2),[5],inactive: 0.1
same,cell viability (log2),[6],inactive: 0.159
same,cell viability (log2),[7],inactive: 0.142
same,cell viability (log2),[8],inactive: 0.0926
CCCn1c(=O)[nH]c(=O)c2[nH]cnc21,cell viability (log2),[1],inactive: 0.233
same,cell viability (log2),[2],inactive: 0.106
same,cell viability (log2),[3],inactive: 0.119
same,cell viability (log2),[4],inactive: 0.055
COC(=O)Nc1nc2ccc(Sc3ccccc3)cc2[nH]1,cell viability (log2),"0.025 µM, library screen: screen2, EWS-FLI1 expression: high (no doxycycline)",inactive: 0.076
same,cell viability (log2),"0.025 µM, library screen: screen2, EWS-FLI1 expression: low (doxycycline-induced shRNA knockdown)",inactive: 0.0311
same,cell viability (log2),[9],inactive: 0.039
same,cell viability (log2),[10],inactive: 0.0842
same,cell viability (log2),[5],inactive: 0.0605
same,cell viability (log2),[6],inactive: 0.108
same,cell viability (log2),[1],inactive: 0.237
same,cell viability (log2),[2],inactive: 0.0195
same,cell viability (log2),[11],inactive: 0.0857
same,cell viability (log2),[12],inactive: 0.103
same,cell viability (log2),[13],inactive: 0.0228
same,cell viability (log2),[14],inactive: 0.0229
same,cell viability (log2),[7],inactive: 0.101
same,cell viability (log2),[8],inactive: 0.0874
same,cell viability (log2),[3],inactive: 0.103
same,cell viability (log2),[4],inactive: 0.0543
same,cell viability (log2),[15],active: -0.667
same,cell viability (log2),[16],inactive: -0.0556
same,cell viability (log2),[17],active: -1.42
same,cell viability (log2),[18],active: -0.611
same,cell viability (log2),"25 µM, library screen: screen2, EWS-FLI1 expression: high (no doxycycline)",active: -2.26
same,cell viability (log2),"25 µM, library screen: screen2, EWS-FLI1 expression: low (doxycycline-induced shRNA knockdown)",active: -0.937
same,cell viability (log2),[19],active: -1.77
same,cell viability (log2),[20],active: -0.629
